# According to the supplement of paper PMC8728848:
# The list shows a part of the results.
# B1: Tap1 (Sordaria macrospora), Q50IV4 (protein)
# chain: MSHHHHHHHHYTLHLRLINDTSDTLTLVEQTSWWGKNTIWSQVRSTGVHVLSMAASGSSGMLRFQTSKGDFFAVAVGVHNYKRWCDVLVDTADEAPLTKLHPKYYDDKDAKYQALWAQASEFEAKSKSGKTVRIKFYQADGNVLRATVEYL
# Legend:
# Test in all cases: glycan array binding signal (z-score within array); higher = stronger binding
# Conditions in all cases: glycan notation: IUPAC condensed, linker removed
# [1] = target: Fuc(a1-2)[Gal(a1-3)]Gal(b1-4)GlcNAc(b1-3)GalNAc
# Outline: (§1)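 Glycan array data came from 3228 arrays in the Consortium for Functional Glycomics database, and only arrays with an available protein sequence were kept. Glycan names were put into IUPAC-condensed notation, and columns mapping to the same glycan were averaged. The binding signal is a within-array Z-score, averaged across arrays of one protein sequence run at different concentrations or buffers and across linkers. A negative Z-score can be read as non-binding.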
# [2] = target: Fuc(a1-2)[Gal(a1-3)]Gal(b1-4)[Fuc(a1-3)]Glc
# Outline: as §1
# [3] = target: Fuc(a1-2)[Gal(a1-3)]Gal(b1-4)[Fuc(a1-3)]GlcNAc
# Outline: as §1
# [4] = target: Fuc(a1-2)[Gal(a1-3)]Gal(b1-4)[Fuc(a1-3)]GlcNAc(b1-3)GalNAc
# Outline: as §1
# [5] = target: Fuc(a1-2)[Gal(a1-4)]Gal(b1-4)GlcNAc
# Outline: as §1
# [6] = target: Fuc(a1-2)[GalNAc(a1-3)]Gal
# Outline: as §1
# [7] = target: Fuc(a1-2)[GalNAc(a1-3)]Gal(b1-3)GalNAc(a1-3)[Fuc(a1-2)]Gal(b1-4)GlcNAc
# Outline: as §1
# [8] = target: Fuc(a1-2)[GalNAc(a1-3)]Gal(b1-3)GlcNAc
# Outline: as §1
# [9] = target: Fuc(a1-2)[GalNAc(a1-3)]Gal(b1-3)GlcNAc(b1-2)Man(a1-3)[Fuc(a1-2)[GalNAc(a1-3)]Gal(b1-3)GlcNAc(b1-2)Man(a1-6)]Man(b1-4)GlcNAc(b1-4)GlcNAc
# Outline: as §1
# [10] = target: Fuc(a1-2)[GalNAc(a1-3)]Gal(b1-3)GlcNAc(b1-3)GalNAc
# Outline: as §1
# [11] = target: Fuc(a1-2)[GalNAc(a1-3)]Gal(b1-4)Glc
# Outline: as §1
# [12] = target: Fuc(a1-2)[GalNAc(a1-3)]Gal(b1-4)GlcNAc
# Outline: as §1
# [13] = target: Fuc(a1-2)[GalNAc(a1-3)]Gal(b1-4)GlcNAc(b1-2)Man(a1-3)[Fuc(a1-2)[GalNAc(a1-3)]Gal(b1-4)GlcNAc(b1-2)Man(a1-6)]Man(b1-4)GlcNAc(b1-4)GlcNAc
# Outline: as §1
# [14] = target: Fuc(a1-2)[GalNAc(a1-3)]Gal(b1-4)GlcNAc(b1-3)Gal(b1-4)GlcNAc
# Outline: as §1
# [15] = target: Fuc(a1-2)[GalNAc(a1-3)]Gal(b1-4)GlcNAc(b1-3)Gal(b1-4)GlcNAc(b1-3)Gal(b1-4)GlcNAc
# Outline: as §1
# [16] = target: Fuc(a1-2)[GalNAc(a1-3)]Gal(b1-4)GlcNAc(b1-3)GalNAc
# Outline: as §1
# [17] = target: Fuc(a1-2)[GalNAc(a1-3)]Gal(b1-4)[Fuc(a1-3)]GlcNAc
# Outline: as §1
# [18] = target: Fuc(a1-2)[GalNAc(a1-3)]Gal(b1-4)[Fuc(a1-3)]GlcNAc(b1-3)GalNAc
# Outline: as §1
# [19] = target: Fuc(a1-2)[GalNAc(a1-4)]Gal(b1-4)GlcNAc
# Outline: as §1
# [20] = target: Fuc(a1-2)[GalNAc(b1-3)]Gal
# Outline: as §1
# [21] = target: Fuc(a1-3)GlcNAc
# Outline: as §1
# [22] = target: Fuc(a1-3)[Gal(b1-4)]Glc6S
# Outline: as §1
# [23] = target: Fuc(a1-3)[Gal(b1-4)]GlcNAc
# Outline: as §1
# [24] = target: Fuc(a1-3)[Gal(b1-4)]GlcNAc(b1-2)Man(a1-3)[Fuc(a1-3)[Gal(b1-4)]GlcNAc(b1-2)Man(a1-6)]Man(b1-4)GlcNAc(b1-4)GlcNAc
# Outline: as §1
# [25] = target: Fuc(a1-3)[Gal(b1-4)]GlcNAc(b1-2)Man(a1-3)[Fuc(a1-3)[Gal(b1-4)]GlcNAc(b1-2)Man(a1-6)]Man(b1-4)GlcNAc(b1-4)[Fuc(a1-6)]GlcNAc
# Outline: as §1
# [26] = target: Fuc(a1-3)[Gal(b1-4)]GlcNAc(b1-3)Gal(b1-3)[Fuc(a1-4)]GlcNAc
# Outline: as §1
# [27] = target: Fuc(a1-3)[Gal(b1-4)]GlcNAc(b1-3)GalNAc
# Outline: as §1
# [28] = target: Fuc(a1-3)[Gal(b1-4)]GlcNAc(b1-4)Gal(b1-4)[Fuc(a1-3)]GlcNAc
# Outline: as §1
# [29] = target: Fuc(a1-3)[Gal(b1-4)]GlcNAc(b1-4)Gal(b1-4)[Fuc(a1-3)]GlcNAc(b1-4)Gal(b1-4)[Fuc(a1-3)]GlcNAc
# Outline: as §1
# [30] = target: Fuc(a1-3)[Gal(b1-4)]GlcNAc(b1-6)[Gal(b1-3)GlcNAc(b1-3)]Gal(b1-4)Glc
# Outline: as §1
# [31] = target: Fuc(a1-3)[Gal(b1-4)]GlcNAc6S
# Outline: as §1
# [32] = target: Fuc(a1-3)[Gal3S(b1-4)]GlcNAc
# Outline: as §1
# [33] = target: Fuc(a1-3)[Gal3S(b1-4)]GlcNAc6S
# Outline: as §1
# [34] = target: Fuc(a1-3)[GalNAc(b1-4)]GlcNAc
# Outline: as §1
# [35] = target: Fuc(a1-4)GlcNAc
# Outline: as §1
# [36] = target: Fuc(b1-3)GlcNAc
# Outline: as §1
# [37] = target: Gal(a1-2)Gal
# Outline: as §1
# [38] = target: Gal(a1-3)Gal
# Outline: as §1
# [39] = target: Gal(a1-3)Gal(b1-3)GlcNAc
# Outline: as §1
# [40] = target: Gal(a1-3)Gal(b1-3)GlcNAc(b1-2)Man(a1-3)[Gal(a1-3)Gal(b1-3)GlcNAc(b1-2)Man(a1-6)]Man(b1-4)GlcNAc(b1-4)GlcNAc
# Outline: as §1
# [41] = target: Gal(a1-3)Gal(b1-3)GlcNAc(b1-3)GalNAc
# Outline: as §1
# [42] = target: Gal(a1-3)Gal(b1-3)[Fuc(a1-4)]GlcNAc(b1-2)Man(a1-3)[Gal(a1-3)Gal(b1-3)[Fuc(a1-4)]GlcNAc(b1-2)Man(a1-6)]Man(b1-4)GlcNAc(b1-4)GlcNAc
# Outline: as §1
# [43] = target: Gal(a1-3)Gal(b1-4)Glc
# Outline: as §1
# [44] = target: Gal(a1-3)Gal(b1-4)GlcNAc
# Outline: as §1
# [45] = target: Gal(a1-3)Gal(b1-4)GlcNAc(b1-3)GalNAc
# Outline: as §1
binder,measurement,setting,value
B1,glycan array binding signal (z-score),[1],-0.137
same,glycan array binding signal (z-score),[2],-0.24
same,glycan array binding signal (z-score),[3],-0.147
same,glycan array binding signal (z-score),[4],-0.149
same,glycan array binding signal (z-score),[5],-0.242
same,glycan array binding signal (z-score),[6],-0.246
same,glycan array binding signal (z-score),[7],-0.246
same,glycan array binding signal (z-score),[8],-0.247
same,glycan array binding signal (z-score),[9],-0.23
same,glycan array binding signal (z-score),[10],-0.091
same,glycan array binding signal (z-score),[11],-0.238
same,glycan array binding signal (z-score),[12],-0.236
same,glycan array binding signal (z-score),[13],-0.117
same,glycan array binding signal (z-score),[14],-0.251
same,glycan array binding signal (z-score),[15],-0.216
same,glycan array binding signal (z-score),[16],-0.212
same,glycan array binding signal (z-score),[17],-0.098
same,glycan array binding signal (z-score),[18],-0.082
same,glycan array binding signal (z-score),[19],-0.231
same,glycan array binding signal (z-score),[20],-0.228
same,glycan array binding signal (z-score),[21],-0.209
same,glycan array binding signal (z-score),[22],-0.162
same,glycan array binding signal (z-score),[23],-0.243
same,glycan array binding signal (z-score),[24],-0.225
same,glycan array binding signal (z-score),[25],-0.189
same,glycan array binding signal (z-score),[26],-0.232
same,glycan array binding signal (z-score),[27],-0.177
same,glycan array binding signal (z-score),[28],-0.208
same,glycan array binding signal (z-score),[29],-0.239
same,glycan array binding signal (z-score),[30],-0.235
same,glycan array binding signal (z-score),[31],-0.148
same,glycan array binding signal (z-score),[32],-0.221
same,glycan array binding signal (z-score),[33],-0.127
same,glycan array binding signal (z-score),[34],-0.23
same,glycan array binding signal (z-score),[35],-0.244
same,glycan array binding signal (z-score),[36],-0.241
same,glycan array binding signal (z-score),[37],-0.248
same,glycan array binding signal (z-score),[38],-0.245
same,glycan array binding signal (z-score),[39],-0.246
same,glycan array binding signal (z-score),[40],-0.108
same,glycan array binding signal (z-score),[41],0.205
same,glycan array binding signal (z-score),[42],-0.165
same,glycan array binding signal (z-score),[43],-0.247
same,glycan array binding signal (z-score),[44],-0.251
same,glycan array binding signal (z-score),[45],0.024
